Measurements from the BET-seq Pho4 binding data (Le et al. 2018).
The other results are listed elsewhere or left out. These are noisy estimates, calculated here from bound and input reads.

Target: T1, Pho4 (S. cerevisiae) (UniProt P07270)
T1 sequence: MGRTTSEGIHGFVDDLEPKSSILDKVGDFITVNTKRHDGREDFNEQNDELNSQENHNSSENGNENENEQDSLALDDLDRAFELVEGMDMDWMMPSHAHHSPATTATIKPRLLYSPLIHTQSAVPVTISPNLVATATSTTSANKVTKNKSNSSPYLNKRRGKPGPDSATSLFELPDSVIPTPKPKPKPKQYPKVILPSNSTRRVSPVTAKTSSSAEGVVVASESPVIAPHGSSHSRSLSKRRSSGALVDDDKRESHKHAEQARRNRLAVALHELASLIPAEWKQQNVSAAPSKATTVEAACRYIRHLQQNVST
Test: relative binding free energy (BET-seq); higher = weaker binding
Details: reference: library average

Row | Sequence | relative binding free energy [kcal/mol]
1 | TCGTGCACGTGTTTAT | -0.03
2 | ATCATCACGTGGAGTG | 0.2
3 | GAGTACACGTGGTGTA | 0.06
4 | TTTATCACGTGAGCAA | 0.47
5 | TTTAACACGTGATGCG | 0
6 | CTATTCACGTGTTAAG | 0.15
7 | TGACTCACGTGAGCGG | 0.35
8 | ACTGGCACGTGTGTAT | 0.14
9 | TTACTCACGTGTATGT | 0.09
10 | TTGGACACGTGAGGGT | 0.18
11 | TAGTGCACGTGCTGCT | -0.06
12 | GTGGTCACGTGGACTT | 0.16
13 | TTTATCACGTGCGTCT | 0.11
14 | ATCGTCACGTGGTAGT | 0.05
15 | AGCTTCACGTGGTTAT | 0.19
16 | TTAAGCACGTGCAGGT | -0.22
17 | ATTATCACGTGTCTAT | 0.12
18 | TGTTTCACGTGAACAT | 0.31
19 | CATCTCACGTGTGTGG | 0.31
20 | GTTCACACGTGAATGG | 0.39
21 | TATGTCACGTGGGTAC | -0.12
22 | GGCGGCACGTGGCCGT | -0.11
23 | TTTTTCACGTGTAAAT | 0.31
24 | ATGTGCACGTGGCGGA | -0.08
25 | GGTTACACGTGTTCTG | 0.05

Row | Sequence | relative binding free energy [kcal/mol]
26 | TCGGACACGTGAGTAG | 0.29
27 | GGTAACACGTGGGGGC | -0.08
28 | TAGTTCACGTGGTTAA | 0.37
29 | GTTTGCACGTGGTACT | 0.03
30 | TGCGACACGTGGTGGA | 0.04
31 | TAGATCACGTGCTTGG | 0.12
32 | GAGCCCACGTGTGGGT | 0.18
33 | GGTGCCACGTGGGGGT | -0.14
34 | TGAGTCACGTGGGGAA | -0.01
35 | TGACACACGTGGTGGA | -0.04
36 | TTAATCACGTGATGGA | 0.2
37 | TAGGACACGTGTTGCG | -0.11
38 | TATGACACGTGTCGGG | 0.06
39 | CATGGCACGTGGTTGT | -0.16
40 | GATTTCACGTGTTTGG | 0.34
41 | CGTGACACGTGAGGAG | 0.28
42 | AGTGGCACGTGCTCGG | -0.25
43 | TGGAACACGTGGGCAT | -0.05
44 | AGGGTCACGTGCTGCG | 0.02
45 | TGTCACACGTGGTTTT | 0.04
46 | GTGATCACGTGTATCT | 0.33
47 | GGGATCACGTGTAGGG | 0.21
48 | TTGCACACGTGTGGAG | 0.04
49 | ATTTGCACGTGCAGGA | -0.11
50 | TGTATCACGTGGACTG | 0.1

Row | Sequence | relative binding free energy [kcal/mol]
51 | AGTATCACGTGGCGCG | 0.1
52 | GCTTGCACGTGGTTAA | 0.11
53 | TTGTACACGTGTTCGT | -0.01
54 | TCTATCACGTGGTTGG | 0.02
55 | GGTGGCACGTGTTTTC | -0.04
56 | ATTTACACGTGTTGCT | 0.1
57 | CTATTCACGTGGATTT | 0.18
58 | GTATACACGTGTCTGG | 0.02
59 | TTTTGCACGTGCAGGA | -0.02
60 | AGGCGCACGTGTAAGG | -0.04
61 | CGCGGCACGTGAGGGT | 0.02
62 | GGTAACACGTGAAGGA | 0.28
63 | TTTATCACGTGTCAGA | 0.21
64 | TGTAACACGTGGCAGG | 0.01
65 | AGTATCACGTGGGTGC | 0.03
66 | GGTTCCACGTGCGTGA | 0.07
67 | GTTTTCACGTGATGTA | 0.29
68 | GGGGACACGTGTGGCG | 0.08
69 | CGTGTCACGTGGTTGC | -0.05
70 | TGTTACACGTGTTCGT | 0.1
71 | AGTTGCACGTGTGGCA | 0.06
72 | TATGACACGTGGACGG | -0.06
73 | GGTAACACGTGTTGGT | 0.08
74 | GTATGCACGTGACGGC | 0.2
75 | TCGTTCACGTGGGAGC | 0.27

Row | Sequence | relative binding free energy [kcal/mol]
76 | GCGTTCACGTGGGATT | 0.24
77 | GGAGGCACGTGAATAT | 0.21
78 | GTTAGCACGTGGTAGG | -0.03
79 | GAGGGCACGTGTATTT | 0.03
80 | ATCTGCACGTGTGGAT | -0.07
81 | CGCTGCACGTGTGTGC | 0.08
82 | GATGTCACGTGGAAAT | 0.3
83 | TGTTACACGTGAATGT | 0.24
84 | GGTTCCACGTGAAGTG | 0.3
85 | CATGGCACGTGTTAGA | -0.07
86 | TGCATCACGTGGTCGG | -0.06
87 | GCAGTCACGTGGGTTT | 0.15
88 | ATGTTCACGTGGATGA | 0.35
89 | GCTTGCACGTGGGCAT | -0.11
90 | AGGTGCACGTGATGGC | 0.05
91 | CTGGGCACGTGGCACG | -0.01
92 | CGGGTCACGTGATAGT | 0.11
93 | TCAGTCACGTGGGCTT | 0.06
94 | GAGTGCACGTGCGCGG | -0.07
95 | TGTAACACGTGTGGCT | 0.17
96 | AAGTGCACGTGCGTTG | -0.08
97 | TGATTCACGTGAGTAA | 0.13
98 | GTAATCACGTGGAGTT | 0.32
99 | TTATGCACGTGGGAAG | -0.1
100 | CTTGCCACGTGGTGTA | -0.15

Row | Sequence | relative binding free energy [kcal/mol]
101 | ATTGACACGTGGTAGG | -0.01
102 | GGGCGCACGTGCAGGT | -0.23
103 | TTAATCACGTGATTGC | 0.19
104 | TTGTACACGTGGATAG | 0.04
105 | GGGAGCACGTGTATGA | -0.03
106 | TTGAGCACGTGGGTTC | -0.26
107 | AATGGCACGTGGAGTT | -0.16
108 | GGGCTCACGTGTGTAA | 0.21
109 | TATCTCACGTGGTTAG | 0.08
110 | TTTCTCACGTGAATAG | 0.34
111 | ATGGACACGTGTTGCT | 0.09
112 | GTCAACACGTGTGAGG | 0.19
113 | AAAGACACGTGGGTTA | -0.04
114 | GGTGACACGTGTGTTC | 0
115 | AGGGCCACGTGATTGA | 0.14
116 | GTATACACGTGAGGGG | 0.32
117 | GATTGCACGTGTGCAT | 0.24
118 | AGTTTCACGTGTGTCC | 0.44
119 | TACGTCACGTGGGTGC | -0.08
120 | GGGTCCACGTGTTGGC | 0.1
121 | GGTAGCACGTGCAGGA | 0.11
122 | GAGTGCACGTGGTATA | 0.04
123 | AGTGCCACGTGAGGCT | 0.15
124 | GGAATCACGTGTGCTG | 0.04
125 | TAAGGCACGTGGCAGG | -0.07

Row | Sequence | relative binding free energy [kcal/mol]
126 | GTTATCACGTGCGTTT | 0.15
127 | AGGATCACGTGATTAT | 0.35
128 | GTATCCACGTGGGATG | 0.07
129 | TTTTGCACGTGGTGGA | 0.09
130 | GGGAACACGTGGGATT | 0.03
131 | TAGGGCACGTGGAAAG | 0.02
132 | GCAGCCACGTGGTGGG | -0.11
133 | TGAGTCACGTGGACGT | 0.06
134 | AGTAACACGTGTAGTG | -0.12
135 | GGTGTCACGTGCGAGA | 0.17
136 | GGCTGCACGTGTTTAG | 0
137 | GCTGTCACGTGATAGA | 0.38
138 | TTGTGCACGTGCTTAG | 0.02
139 | GTGGACACGTGCATGG | -0.06
140 | CTATACACGTGTATGT | -0.06
141 | GGTAGCACGTGTTGGA | -0.17
142 | GCGACCACGTGGGGGT | -0.3
143 | AGATGCACGTGAGTGT | 0.17
144 | TTTTTCACGTGATTCT | 0.29
145 | TCAGGCACGTGGGAGG | -0.16
146 | TTGTTCACGTGAGGAC | 0.37
